First the molecules themselves.
B1: chr22:32879901:32879902:+_ENSG00000100225_ENST00000397426|hu_mus|hu_hu_hu_mus_False|58_78 (ssRNA)
RNA: GGGAGUUCUACAGUCCGACGAUCCUCUUCCAUACUCAUGGCAUCCUGAAUUGACUCAGCUUCAAAAUUUUGACUAGGCCCUAACAUACUGUCAUCAGUCCAGGCAUCAAAUGGGGUGGCCUGUCCUUGGGAUGAAUCAGUCCCCAACAGAGGAUUGAGCAUCA
B2: chr2:9570881:9570882:+_ENSG00000119203_ENST00000238112|hu_mus|hu_hu_hu_mus_False|58_58 (ssRNA)
RNA: GGGAGUUCUACAGUCCGACGAUCACUUGUCUUCUGAAGGAACCAGGGCAGGGCUCCACAGUGAUCCAAAUGGAAAUGACUAAUUAACAGAAGGUCGAUCUCAGCUGGGUCGAUAAGGUCAAUGUAAGGAAGGGCAUCCAUUCCCAACAGAGGAUUGAGCAUCA
B3: chr7:108212191:108212192:+_ENSG00000128590_ENST00000249356|hu_mus|motif|central (ssRNA)
RNA: GGGAGUUCUACAGUCCGACGAUCGUUAUCAUUAAAAUGCAGAUUGCAAAGACGAAAACUGACUGUGGAGUAGCCAUUUCGGAUAACCUGUGCGCCCCGACGCAGCUUCUCCACAGCGCGGCGGCCCGGCUCCGGUUCCCUGACCAACAGAGGAUUGAGCAUCA
B4: chr10:33190432:33190433:-_ENSG00000150093_ENST00000302278|hu_mus|hu_hu_hu_mus_True|28_98 (ssRNA)
RNA: GGGAGUUCUACAGUCCGACGAUCUACAUUUUCCAAACCUGCACAUGAAUAAAACCCUGGCCACAGAGCCCCAAAACUACCCUACUGUGACUAAGAUGCUGCUGCUGUUGCAUUCAGGUUGCAAAAUCCGCCUGAGUAGGAUUCCAACAGAGGAUUGAGCAUCA
B5: chr4:17845017:17845018:+_ENSG00000109805_ENST00000514176|hu_mus|hu_hu_hu_mus_False|18_78 (ssRNA)
RNA: GGGAGUUCUACAGUCCGACGAUCGCUCUCUUAACUUGUAUCUUCAUUAAGGAACUCGCAAGGUUAAAGUUUACUUUUCUGUAGCGCAGCUGUUUUGGCUCGUCUGGGUAAUCUCAUUUCAUUUCUGGAUGGUGGUUCAUGAUCCAACAGAGGAUUGAGCAUCA
B6: chr18:33598288:33598289:-_ENSMUSG00000042834_ENSMUST00000171533|mus_hu|FALSE|FALSE (ssRNA)
RNA: GGGAGUUCUACAGUCCGACGAUCAGUCAGAAUGAUUAAAAACUGGUUUGAUGACACCUAUUUGUCCACUGUAAAUUCUCUAAAGCAAGGCUCAGAGUCCCAUAGUUUCUUCUUAUACUUGAUGAUUUACACAGAAAAAAAUCCCAACAGAGGAUUGAGCAUCA
B7: chr4:95585135:95585136:+_ENSG00000163110_ENST00000317968|hu_mus|FALSE|FALSE (ssRNA)
RNA: GGGAGUUCUACAGUCCGACGAUCUUUGCAAAGUGGCUUGUCCUUCUUGGAGAAAAAUGUCUGCCCUUCCAAACUUUCACAACACACAGAGCACACAAAGCAAGUAUCAUGCCAAGUGUAUCCCAGAGCUUCCAGGAACAUGUCCAACAGAGGAUUGAGCAUCA
B8: chr17:37075478:37075479:+_ENSG00000002834_ENST00000318008|hu_mus|FALSE|FALSE (ssRNA)
RNA: GGGAGUUCUACAGUCCGACGAUCGAGGCAGAGAGUCAGGAAGAUGGACUAGGGCAAAGGUCAGCACGAGGCCUUAAUACCGACCCCCUGGGGAUGUGUGGAGCCACACCUGGAGGUAUGAGGAGGACACAGCUCACCCCAGCUCAACAGAGGAUUGAGCAUCA
B9: chr9:119461815:119461816:+_ENSG00000119401_ENST00000373983|hu_hu|FALSE|FALSE (ssRNA)
RNA: GGGAGUUCUACAGUCCGACGAUCCUUAGGAGUUAGGGCUAUGCCCACCGGACAGGUAAGUCCCUCUCGAAUAAGGACACUAUAGCCCCCACCCUUAGGAAAAUGGAGAAUUUCCUUGCGACUACUGUCAGCCACGAUGAGAUCCAACAGAGGAUUGAGCAUCA
B10: chr7:135839593:135839594:+_ENSMUSG00000042105_ENSMUST00000151237|mus_mus|FALSE|FALSE (ssRNA)
RNA: GGGAGUUCUACAGUCCGACGAUCCUGAGAGUCAGUUAACCAGAGUAAGGCUCUAAAGGAUGCCAGAGACAUUGAUACCUGCUAGAAUAUGCCUACAGCUUUCUCACUCUGGGUUACAGAAGAGGUUCUUGGUGGUUAGUUACUCAACAGAGGAUUGAGCAUCA
B11: 43401038_43402418_1595_CDS_ENSG00000124574_ENST00000372530|human|control|control (ssRNA)
RNA: GGGAGUUCUACAGUCCGACGAUCUGCCUGCUCCCACCCGCAGAACUUGAUGACCCGAAUGCCACUCAGCAGCUCUGUCACAAGCUUAACCCGCGCAUCCUUGUGCUGUAGCAUUUCCUGGUUGCUGGCCAUGAUGCGGGUGGCCAACAGAGGAUUGAGCAUCA
B12: chr1:109605286:109605287:-_ENSG00000197780_ENST00000461096|hu_hu|FALSE|FALSE (ssRNA)
RNA: GGGAGUUCUACAGUCCGACGAUCAUAAACAAUAACAUUCAGUGAUCUACUUAAAUCCAAUUGUAAUCCUUACUUUAAACUAAGGGCAAUAAUAAUUUAAUACAUAGAGUAAAUACACACAAAACCUGUGUAUUCAGAACUACACAACAGAGGAUUGAGCAUCA
B13: chr20:7962013:7962014:-_ENSG00000125827_ENST00000246024|hu_hu|motif|central (ssRNA)
RNA: GGGAGUUCUACAGUCCGACGAUCGAGGACUUCUGGCUUGAAAAAUAUUGCUUAGAAAACUUAAAAAAAAAUCAACAACAACGGUAUUUUGGACAAAACAAUUUUUUUUUAAUCUGUCUUGUAAAAUCCUUACUUCCUUUUGAGCAACAGAGGAUUGAGCAUCA
B14: chr13:100191535:100191536:-_ENSMUSG00000052727_ENSMUST00000064762|mus_mus|motif|central (ssRNA)
RNA: GGGAGUUCUACAGUCCGACGAUCAGAGGGGAUAUUGCACACAAAUAUCAUAAAAGCACUACAUAUUACUUUCACUGGAAACGGAUUUUUCUACAUUAGAUAUGACUGGAUAGGAUGGAAGUGAUGCAGGAUUAUAAGACAUAACAACAGAGGAUUGAGCAUCA
B15: chr8:125728745:125728746:-_ENSMUSG00000000743_ENSMUST00000000759|mus_hu|FALSE|FALSE (ssRNA)
RNA: GGGAGUUCUACAGUCCGACGAUCGGCAGGUUUUCCUCACAGCAGCCCCAACCCCAGCCCAGCUGAAGACGGCUCUCCUGAGCUCCCUUCAUCAGCUGCCUUGGCUUCCAAGCUGGGAAGGCAUUGGGGUGUGGUCGGGGAAGGCAACAGAGGAUUGAGCAUCA
B16: chr11:10818680:10818681:-_ENSG00000110321_ENST00000525681|hu_hu|FALSE|FALSE (ssRNA)
RNA: GGGAGUUCUACAGUCCGACGAUCUAUAUAAAAUCAGGGCAUGAACAUGACUUGAUAAAUUAAGUAGACUUAAUUUCAAUACUAUAAUAGGAGGGACCAAUUCAAAUUCUCACCAUUUGUUUCACACCCACAAAAACCACUUCACAACAGAGGAUUGAGCAUCA
B17: chr1:32384726:32384727:-_ENSG00000184007_ENST00000602725|perfect_dup|motif|central (ssRNA)
RNA: GGGAGUUCUACAGUCCGACGAUCAAAAAAAAAUCAAUAAAUCUUGAAAUGUUUCACAGCAGAAAACAUUAAAAAGACCACGGAAAUGCCUAUUAUCAAUCAGUGUUUUCUCUAUUCAACUUGUUUAUUCCUUAUGAAGCUUCUCAACAGAGGAUUGAGCAUCA
B18: chr16:46708560:46708561:-_ENSG00000069329_ENST00000568784|perfect_dup|FALSE|FALSE (ssRNA)
RNA: GGGAGUUCUACAGUCCGACGAUCCAAAAAGUUUAAUAUCCGCUGGGAUUCCAGGUCCAUCUUCACGGUGAGCAAAUAAAGCUAAUCUAUCAAUUAAAGCAAUGAUUAUGUUCUUCACAUUUACAUUCUGGUGUAACUCAGCACCAACAGAGGAUUGAGCAUCA
B19: chr3:41277855:41277856:+_ENSG00000168036_ENST00000349496|hu_hu|FALSE|FALSE (ssRNA)
RNA: GGGAGUUCUACAGUCCGACGAUCUUCAAUAGCUUCUGCAGCUUCCUUGUCCUGAGCAAGUUCACAGAGGACCCCUGCAGCUACUCUUUGGAUGUUUUCAAUGGGAGAAUAAAGCAGCUGCACAAACAAUGGAAUGGUAUUUAGCAACAGAGGAUUGAGCAUCA
B20: 66377282_66378621_497_3pUTR_ENSG00000166479_ENST00000299608|human|control|control (ssRNA)
RNA: GGGAGUUCUACAGUCCGACGAUCUCCAACCUUAACUGGAGAACCAAUGCUUUUCAUCUCAAGACCAACUUCAUUCCAAAUUGGUUCCAGCUUUUUACAAUGGCCACACCAUGGCGCAUAAAAAUCUACAAGCCAAAUGUCAUCCAACAGAGGAUUGAGCAUCA
B21: chr2:232597714:232597715:-_ENSG00000156973_ENST00000287600|hu_mus|FALSE|FALSE (ssRNA)
RNA: GGGAGUUCUACAGUCCGACGAUCGAAAAGCCUCACUUUGGAUGUGCUGACAAGAAGAUCAUCGUCAAAGAACUUUGUCUCUAUGAUGACAUUGCCCGUUAGGACGCUGGCGGGCAUCAUCUGGGACUCAGGCGCUGCUUCUAUCAACAGAGGAUUGAGCAUCA
B22: chr11:79222206:79222207:+_ENSMUSG00000020716_ENSMUST00000071325|mus_mus|FALSE|FALSE (ssRNA)
RNA: GGGAGUUCUACAGUCCGACGAUCCUUUGUAAAUUCAUCCGGAUAAUUUUCUACCCAGUUCCAAAAAGCCUUUUCUAGGCUAUUUAUAACUGCCAACUGUGCAACCUUCUUCAGGGCUUUAAAUUUAAAUGCUGUUUCCUUCAGCAACAGAGGAUUGAGCAUCA

The list shows a part of the results.

For the assay, the target named is T1, UNK ZnF1-3 (human, UniProt Q9C0B0 31-174).
T1 sequence: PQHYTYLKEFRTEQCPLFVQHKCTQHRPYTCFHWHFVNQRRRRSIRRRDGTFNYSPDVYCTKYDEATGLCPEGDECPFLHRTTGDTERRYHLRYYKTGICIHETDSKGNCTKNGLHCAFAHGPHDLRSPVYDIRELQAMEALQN
Description: nsRBNS (natural sequence RNA bind-n-seq); RBNS binding buffer (assumed for nsRBNS): 25 mM Tris pH 7.5, 150 mM KCl, 3 mM MgCl2, 0.01% Triton X-100, 500 ug/ml BSA, 20 U/ml SUPERase-In, 4 C; UNK is unkempt and MSI1 is Musashi-1; names of the RNAs are library labels; protein concentration not given here; high values mean tight binding.
For the molecule B1, the binding signal stood at 1.4 enrichment R.

B2: the binding signal is 1.29 enrichment R.

Turning to B3, the binding signal stood at 0.719 enrichment R.

The molecule B4 returned a binding signal of 1.42 enrichment R.

On to B5, for which the binding signal was found to be 0.441 enrichment R.

Molecule B6 registered a binding signal of 0.849 enrichment R.

Molecule B7 registered a binding signal of 1.42 enrichment R.

As for B8, the binding signal was 1.27 enrichment R.

B9 had a binding signal of 0.489 enrichment R.

B10 registered a binding signal of 1.08 enrichment R.

For the molecule B11, the binding signal amounted to 0.602 enrichment R.

B12 came in with a binding signal of 0.608 enrichment R.

In turn, B13 showed a binding signal of 1.05 enrichment R.

In the case of B14, the binding signal turned out to be 1.56 enrichment R.

The molecule B15 showed a binding signal of 0.402 enrichment R.

In turn, B16 showed a binding signal of 2.15 enrichment R.

The molecule B17 yielded a binding signal of 1.03 enrichment R.

For B18, the binding signal came out at 1.15 enrichment R.

Consider B19, for which the binding signal is 1.14 enrichment R.

In the case of B20, the binding signal came to 0.757 enrichment R.

For B21, the binding signal stood at 0.875 enrichment R.

In turn, B22 yielded a binding signal of 0.978 enrichment R.

Values taken from publication PMC12136788.
